In the RNAGym collection of RNA variant scans (doi:10.1073/pnas.2313332121):
Variants at the floor of the assay are shown more often than the library holds them.

B1: TPR 5TU (parent)
chain: GGAUCUUCUCGAUCUAACAAAAAAGACAAAUCUGCCACAAAGCUUGAGAGCAUCUUCGGAUGCAGAGGCGGCAGCCUUCGGUGGCGCGAUAGCGCCAACGUUCUCAACUAUGACACGCAAAACGCGUGCUCCGUUGAAUGGAGUUUAUCAUG

Variants of: B1
Experiment: polymerase ribozyme fitness, log enrichment relative to wild type (log ratio); higher = more active; in vitro selection for triplet polymerase activity
Method in brief: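 A single round of triplicate in vitro selection, including frozen incubation at −7 °C, was applied to PCR-built, transcribed mutant libraries of each subunit of a heterodimeric triplet polymerase ribozyme. Illumina sequencing of input and output libraries retained genotypes with ≥10 input reads and ≥1 read per output. Fitness is the base-2 logarithm of genotype enrichment divided by wild-type enrichment, from inverse-variance-weighted replicate averages.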

Variant	polymerase ribozyme fitness (log ratio)
A26U A30U G86A C87U C93U G100U U109C C149U	≤ -4.2
A26U G84A C118A	-3.09
A26G A49U A147C	≤ -4.2
A26C G46C C87G C149A	≤ -4.2
G25C C105U U144C	-2.67
A26C C87U	-1.69
G25C A40C G42U G58A A64G C96U	≤ -4.2
G25U A37C A40C U56G C76U C87G C96A C129G U148C C149U	≤ -4.2
G25U A28C A29G C95A C149G	≤ -4.2
A26C G48C A52C C93U U109C A110U A115U A150U	≤ -4.2
A26C C54A C76U G80C G84A	≤ -4.2
A26U C75A A91U A110U G136U	≤ -4.2
A26G G58C G59A A66G A91C C103G C105A	≤ -4.2
G25U U61A G84U C85A A89U C93A C103A G141U	≤ -4.2
A26C A39C A49U U55G U61A A66C G67A A73U G84U	≤ -4.2
A26G C72U U109A C116A G143A	≤ -4.2
G25C U90C A91G G117A	≤ -4.2
G25U U53A G81A A91U C118A A137U	≤ -4.2
A26U U33A G81A A110C G133U	≤ -4.2
A26C U31G G42A U61G G71A G84A A97U G100A	≤ -4.2
A26C A49G G58U U77G G136C U146G	≤ -4.2
A26C G83C A97U C123U G126C U130A	≤ -4.2
A26C A39G G46C U55G C57U C99G	≤ -4.2
G25U A49U C57U A64U A89G C93A	≤ -4.2

Variant	polymerase ribozyme fitness (log ratio)
A26U A40C U134G	≤ -4.2
A26U A47U G68C G86C A113U A122G	≤ -4.2
A26U G34U A73U A91U	≤ -4.2
G25U U33G G86A A107C A110U G141U U145C	≤ -4.2
A26G A60G	-3.55
G25C A39U G86U	≤ -4.2
A26U U44A U53C G62C G68C C69U C93U A106U A142U	≤ -4.2
A26C U45A C116G G124C	≤ -4.2
A26U A47C A52U A66C G67A C85A	≤ -4.2
A26G U31A G48A A60C C76G A107C A119U	≤ -4.2
A26U U33G G92A C95U U134G	≤ -4.2
A26C A41G G42C U101A G152U	≤ -4.2
A26U A41C U53A C96A U101G U109C	≤ -4.2
G25C G50C	≤ -4.2
G25C G84U C87G	≤ -4.2
G25U G71A G92A A97G C103G G141U	≤ -4.2
A26U A40G C87G G94C	≤ -4.2
G25C A30C A60U U102G A106G A121U G128U	≤ -4.2
A26U A29G C36G C51U	≤ -4.2
A26U C85A	-2.68
A26U A39U G71C C95G G143A U144C	≤ -4.2
A26U C54U C57G G58A G68A G86A G117U A122C C123G C129G	≤ -4.2
G25C G50C A91C A106C	≤ -4.2
A26C C38A A39U	≤ -4.2

Variant	polymerase ribozyme fitness (log ratio)
A26C A37U C79U A106U G143C U146A U148C	≤ -4.2
G25U A41C U61A U77G C87A C125A	≤ -4.2
A26G A37G A40G G58U G65U G74C G88C U101C U151A	≤ -4.2
A26U A30U C93G C116A U134A	≤ -4.2
A26G A137U	≤ -4.2
G25U G88C A98G G100C A150C	≤ -4.2
A26C C87A U101G	≤ -4.2
A26G U44A G71A G86C	≤ -4.2
A26G C93A	≤ -4.2
A26G C27A A73G C87G C125U	≤ -4.2
G25U A52G U56A A60G G133C	-4.06
G25C G83A G92C A106U	≤ -4.2
A26G C36G A66C G92A A122C	≤ -4.2
A26G U44A C57A G83A A97U C118G	≤ -4.2
A26G G65C C72U A120G	≤ -4.2
A26U A30U G48A	≤ -4.2
A26C C54G A121G	-2.79
A26U C35G G59U A60C C76A G136U	≤ -4.2
G25U U90G	≤ -4.2
G25U C76G G92A A119U U145A C149A U151G	≤ -4.2
G25U A29U U55A C95A U104G	≤ -4.2
A26U A39G A49C U77G A89U A147C	≤ -4.2
G25U A49G A52U U90G C125G A142U G143C	≤ -4.2
A26C C75U G92C G141C	≤ -4.2

Variant	polymerase ribozyme fitness (log ratio)
G25U C43A G58C A60C A91G	≤ -4.2
A26U A40G A41C A49G C51U A52C U90A G92A C95U A97C C118A A137G U151C	≤ -4.2
A26G A49C C99G U134C	≤ -4.2
A26U C57U C87U A106U G140A	≤ -4.2
G25U C36U A49C G100A A106G G140U G152A	≤ -4.2
G25C C51U G68A G88U U135C U145C	≤ -4.2
A26G G83C C103A C116U	≤ -4.2
G25U U33C C35A U55A C96G C99U A106G A150U	≤ -4.2
A26U C85G A113G A142U	≤ -4.2
A26C A41U C43A G94C U101C	≤ -4.2
A26G A40G U55A G92A C123G C125U G126A U127C	≤ -4.2
A26C A28U C57U G62A G67C A73G C93G U101G C123A	≤ -4.2
G25C G58A C72A G80A C87A C118G	≤ -4.2
A26G U45A U53A C85A C96U G100U U102A C116U A150G	≤ -4.2
A26C U61A A64U C85A A110C G124A G136A G140U	≤ -4.2
A26U C93U G117U A137C	≤ -4.2
A26U C36U C87G C95U G117C G128A G152A	≤ -4.2
G25U C75G C85A C95U U109C G140C U146A	≤ -4.2
G25U A41G C93G A113U A150U	≤ -4.2
G25U G58C G94U G136U	≤ -4.2
G25U A37C A41C C116A	≤ -4.2
A26U C54A G65A A98G	-4.2
A26G A30G U45A U77G	≤ -4.2
G25C G48A C87U A142G	-4.11

Variant	polymerase ribozyme fitness (log ratio)
A26U G46U G58A A73U C85G U111G	≤ -4.2
G25C C27U U56A A73G C87G A97G C125A	≤ -4.2
G25U G59C U61G A113U	≤ -4.2
A26U G94C C96U C103G U151G	≤ -4.2
A26U C51G C54G U56C C57U A60C G68A U77A G88C G126C	≤ -4.2
A26U C132G	≤ -4.2
A26U G42C U45C	≤ -4.2
A26U C35G A52G U77C G80U	≤ -4.2
A26U U44A U56A G80A C87G A97G G152A	≤ -4.2
A26G A28G U44A U61C	≤ -4.2
G25C C51U G92A	≤ -4.2
A26G U31G U55A G83A C95U	≤ -4.2
G25U A49C	≤ -4.2
A26C C35A G42C U56A G58U U61A G84A A122G C125A	≤ -4.2
A26U A52C G67A G94C C114A A121U G140C	≤ -4.2
A26C U33C A98G	≤ -4.2
A26U C51G A52U C76A A91G A97U U145A	≤ -4.2
A26C A29U G126U A138C	≤ -4.2
A26U A52C G68U C85G	≤ -4.2
A26U A52C G83A C105A	≤ -4.2
A26C C87U A122G A142G	-3.94
G25C C36G G68U C95G C129A A142C	≤ -4.2
G25C C75G C103G A122G C129G G140A	≤ -4.2
G25U C43U U45C A47G G70C C96A	≤ -4.2

Variant	polymerase ribozyme fitness (log ratio)
A26U G62A G84A C105A A106C G126A	≤ -4.2
A26U A29U C76U A97U	≤ -4.2
A26C A107U	≤ -4.2
G25U C93A A147G	≤ -4.2
A26G G50A G81U C99U	≤ -4.2
G25C G48A C54U G68C C95U G141C	≤ -4.2
G25C G50U C54U G65A G80C G83U C85G A137U U146C	≤ -4.2
A26U A29G A91C G136C U145G	≤ -4.2
G25C A41G U44A G48C C85A C93G	≤ -4.2
A26C G68C A122C U135C U139G U145G	≤ -4.2
A26U U44A C93G C125U	≤ -4.2
G25U A49G U56C G83A C87G G136A	≤ -4.2
A26U A89C C95U U104A A107G	≤ -4.2
G25U A26U A41U C43U G68A G94U A106C A142G	≤ -4.2
A26U U31A G86U A147C	≤ -4.2
G25U A49C C51U U53A C85G G100C A120G G124A C129A A137U	≤ -4.2
G25C C54G C96G G117C A138G C149G	≤ -4.2
G25U U61A C85U U148A	≤ -4.2
A26C G86A C99U G141C	-3.84
A26U C35U U90G U111G	≤ -4.2
G25U C54A C87U G88A U102G C116U G140C	≤ -4.2
A26C U101G G133C U148C G152A	≤ -4.2
G25C C27U C51G G83A A106U C123U	≤ -4.2
A26C C57G U77G	≤ -4.2

Variant	polymerase ribozyme fitness (log ratio)
A26C C57U C85G G92U	≤ -4.2
G25U A26U U56A G86C	≤ -4.2
A26C C87G C116A	≤ -4.2
G25U A30G C63A G92U C116U	≤ -4.2
A26U G59U G141A A150C	≤ -4.2
A26G G50A U61A C99U U130G G141A U145C	≤ -4.2
G25U	-1.73
A26C A110G	≤ -4.2
G25U C36A G42C U55A G59A C75G C96U G141A	≤ -4.2
G25U A64G C99U U101A C116G	≤ -4.2
A26U A29U A52U G74C C118G	≤ -4.2
G25U U55G A73G A120C C123U	-3.39
G25U A39C A47U G74A C75A	≤ -4.2
A26C U55A G70A C76G C95U C105G C114A	≤ -4.2
A26G A30C G59A G74A G84U	-3.99
A26G C35U U56A	≤ -4.2
A26G A28U G42C G59C C96G C105G C116U	-4.04
A26C A52G G58U U78A A97U	≤ -4.2
A26U C38A A39C A47U G59C C79U C95A A98U U139C U145C U146A A147U	≤ -4.2
A26U U31G G42C C93G A137G	≤ -4.2
A26U A39G G50C C57G C85U A89G	≤ -4.2
A26U G50C A91C G128U	≤ -4.2
A26G U44G A47C A49C C72G C76G A91C C103G C105G	≤ -4.2
